Laboratory results as given in PubChem BioAssay AID1347165 (National Center for Advancing Translational Sciences (NCATS), 2019).
The whole screen tested about 220,000 compounds, of which about 5,700 (2.6%) were called active. The inconclusive results got no clear call from the source; some entries with a clear call stand among them for comparison. Calls follow the shape of the dose curve; as a rule, active = well fitted inhibition curve with a large enough effect; inconclusive = small, poorly fitted or top-dose-only effect; inactive = no such curve, though single readings can be large or run the other way. Where the call is inconclusive, the potency comes from a doubtful curve fit.
Also: nearly all actives have a fitted effect of over 70% in size.
For activity change, negative = inhibition in this document: 0% is about no effect.
Potency is read from the fitted curve at half-maximal effect; tags tell the direction and shape of the fitted curve.

Each compound was assayed against Lysine-specific demethylase 5B (Homo sapiens) (UniProt Q9UGL1) (assay: Primary screen for KDM5B Histone Demethylases FDH-coupled qHTS). Conditions: FDH-coupled NADH fluorescence (FDH is formaldehyde dehydrogenase); activity change, negative = inhibition: at 57.7 µM (top of the series) unless noted.
Chain of UniProt Q9UGL1 (Q9UGL1 whole entry, looked up): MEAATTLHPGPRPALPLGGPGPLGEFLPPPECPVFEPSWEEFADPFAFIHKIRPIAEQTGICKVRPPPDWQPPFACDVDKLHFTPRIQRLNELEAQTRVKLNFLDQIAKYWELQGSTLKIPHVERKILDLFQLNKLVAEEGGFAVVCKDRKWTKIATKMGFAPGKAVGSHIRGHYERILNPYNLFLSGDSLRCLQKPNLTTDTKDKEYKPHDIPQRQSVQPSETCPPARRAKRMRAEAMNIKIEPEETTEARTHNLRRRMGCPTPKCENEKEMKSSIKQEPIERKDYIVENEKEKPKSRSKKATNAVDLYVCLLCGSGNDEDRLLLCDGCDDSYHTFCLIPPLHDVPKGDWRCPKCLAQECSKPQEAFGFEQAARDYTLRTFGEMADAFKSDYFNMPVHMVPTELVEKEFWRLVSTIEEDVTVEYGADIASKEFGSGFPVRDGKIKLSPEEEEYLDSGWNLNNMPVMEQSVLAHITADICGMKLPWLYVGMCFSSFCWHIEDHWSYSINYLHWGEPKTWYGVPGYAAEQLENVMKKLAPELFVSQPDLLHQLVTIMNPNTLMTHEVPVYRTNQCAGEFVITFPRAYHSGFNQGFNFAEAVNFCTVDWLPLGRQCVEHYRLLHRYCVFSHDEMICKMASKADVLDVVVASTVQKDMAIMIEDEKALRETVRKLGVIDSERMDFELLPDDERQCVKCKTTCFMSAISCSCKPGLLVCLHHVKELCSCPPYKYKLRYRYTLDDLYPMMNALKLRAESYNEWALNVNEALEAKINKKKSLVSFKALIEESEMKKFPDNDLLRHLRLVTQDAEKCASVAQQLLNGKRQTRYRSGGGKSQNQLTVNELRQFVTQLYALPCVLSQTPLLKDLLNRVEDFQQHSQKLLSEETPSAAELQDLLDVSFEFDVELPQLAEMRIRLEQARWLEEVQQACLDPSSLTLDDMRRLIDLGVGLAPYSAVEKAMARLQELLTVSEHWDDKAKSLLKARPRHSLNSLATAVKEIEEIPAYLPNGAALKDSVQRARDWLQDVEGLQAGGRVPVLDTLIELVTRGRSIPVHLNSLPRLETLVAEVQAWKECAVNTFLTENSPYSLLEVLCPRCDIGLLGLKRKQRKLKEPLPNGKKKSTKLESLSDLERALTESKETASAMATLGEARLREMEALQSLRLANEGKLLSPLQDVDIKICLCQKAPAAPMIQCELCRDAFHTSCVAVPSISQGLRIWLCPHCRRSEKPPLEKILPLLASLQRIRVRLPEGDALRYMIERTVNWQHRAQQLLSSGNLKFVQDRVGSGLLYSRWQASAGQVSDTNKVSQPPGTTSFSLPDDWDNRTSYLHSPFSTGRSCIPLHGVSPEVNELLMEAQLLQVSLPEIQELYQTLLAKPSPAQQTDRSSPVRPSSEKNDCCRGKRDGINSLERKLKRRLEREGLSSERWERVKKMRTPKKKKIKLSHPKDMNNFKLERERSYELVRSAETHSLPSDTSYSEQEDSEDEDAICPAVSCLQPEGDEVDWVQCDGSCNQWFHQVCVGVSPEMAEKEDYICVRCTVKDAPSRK
Method in brief: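 Measured: NADH fluorescence change, 30 min, RT. System: KDM5BΔAP 200 nM final, H3K4me3 peptide, α-KG, Fe(II), ascorbate, NAD⁺ plus FDH, pH 7.5 HEPES. Compounds: titrated, 10 min pre-incubation with enzyme.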
In the case of COc1ccc2ccccc2c1CN1CCC2(CC1)[C@H](O)C[C@@H]2OCCN, the Potency is reported as “inactive”.
With CNCC(=O)NC1CCCN(c2ccc(C(F)(F)F)cn2)C1 (centres undefined) the Potency was active: 28.2 µM.
In the case of CN1CCN(c2ccc(NC(=O)c3ccccc3Cl)nc2)CC1, the Potency is reported as “inactive”.
In the case of CN1C[C@@H](NC(=O)CC(C)(C)CC(=O)O)C[C@H]1c1nc(-c2ccc3c(c2)OCO3)no1, the Potency is reported as “inactive”.
CCCOc1ccc(-c2cc(C(=O)OC)c3ccccc3n2)cc1 was tested, and the Potency was “inactive”.
In the case of CN(C)CCCNC(=O)CNc1nc(Cl)nc2nc[nH]c12, the Potency is reported as “inactive”.
With Cc1ccccc1COc1ccccc1C=O the Potency was “inactive”.
In the case of CCCCC1CCC(c2nc(C#N)c(N3CCN(C)CC3)o2)CC1 (centres undefined), the Potency is reported as inconclusive: 25.1 µM [inhibitor, partial curve, poor fit].
For Cc1cc(C)cc(-n2c(C)cc(C(=O)C(=O)Nc3nnc(C)s3)c2C)c1, the Potency was inconclusive: 2.51 µM [inhibitor, partial curve, poor fit].
For Cc1nc(CCNC(=O)C2CCC2)no1, the Potency was “inactive”.
For C=CCOC(=O)C1=C(C)N=C2SC=C(CC(=O)NCC3CC3)N2C1c1cccc(OC)c1OC (centres undefined), the Potency was inconclusive: 31.6 µM [inhibitor, single point].
For CCOC(=O)c1cc2c(=O)n3ccccc3nc2n(Cc2ccco2)c1=NC(=O)c1ccc(C)c(C)c1, the Potency was inconclusive: 15.8 µM [inhibitor, partial curve, poor fit].
With O=C(Cn1c(=O)oc2cc(S(=O)(=O)N3CCCCCC3)ccc21)Nc1ccc(F)cc1F the activity change, negative = inhibition was inconclusive: -31.8% [inhibitor].
With Cc1occc1C(=O)Nc1ccccc1Oc1ccccc1 the Potency was “inactive”.
With CCN1c2cc(C(=O)Nc3ccc(OC(F)(F)F)cc3)ccc2C(=O)N2CCCCC21 (centres undefined) the Potency was inconclusive: 25.1 µM [inhibitor, partial curve, poor fit].
For CN(C(=O)c1ccc2c(c1)OCO2)C1CCc2nn(CC3CC3)c(=O)n2CC1 (centres undefined), the Potency was inconclusive: 31.6 µM [inhibitor, partial curve].
In the case of COc1ccc(CCNC(=O)c2nc(SCc3ccccc3F)ncc2Cl)cc1OC, the Potency is reported as “inactive”.
For Cc1c2c(cc3c4c(c(=O)oc13)CCCC4)C(O)CC(C)(C)O2 (centres undefined), the Potency was inconclusive: 22.4 µM [inhibitor, partial curve, poor fit].
For Cc1cccc(-c2noc(CN(C)C(=O)COc3ccc(Cl)cc3C)n2)c1, the Potency was “inactive”.
For Cc1cccc(N2CCN(c3ccc(C(=O)O)cc3NC(=O)c3cccc(Cl)c3)CC2C)c1 (centres undefined), the Potency was inconclusive: 31.6 µM [inhibitor, partial curve, poor fit].
Cc1cnc(C2CC2)n1CCNS(=O)(=O)c1ccccc1Cl was tested, and the Potency was “inactive”.
With O=C(Nc1ccc2c(c1)OCO2)c1cccc2c1CCN2C(=O)Nc1ccc(F)cc1 the Potency was inconclusive: 25.1 µM [inhibitor, single point].
In the case of CCN1C(=O)CCN(C(=O)c2ccc3cc[nH]c3c2)CC12CCOCC2, the Potency is reported as inconclusive: 28.2 µM [inhibitor, partial curve, poor fit].
Cc1cccc(CNC(=O)c2cc3c(N4CCSCC4)nc(C)cn3n2)c1 was tested, and the Potency was inconclusive: 39.8 µM [inhibitor, partial curve, poor fit].
With CCc1nc(-c2c3n(c(=O)n(CC(=O)Nc4cc(C)ccc4C)c2=O)CCCC3)no1 the Potency was “inactive”.
O=C(CN1CCCc2cc(F)c(F)cc21)Nc1cccc2nsnc12 was tested, and the Potency was “inactive”.
In the case of COCCO[C@H]1C(=O)N(C2CCN(Cc3ccc(O)cc3)CC2)[C@H]1c1ccncc1, the Potency is reported as “inactive”.
For CC(C)NC(=O)N1CCN(c2cc(Cl)ncn2)C(=O)C1, the Potency was “inactive”.
With COc1ccc(NC2=CC(=O)CC(c3ccccc3)C2)c(OC)c1 (centres undefined) the Potency was “inactive”.
For CCn1ccc2cc(C(=O)N3CCC(=O)N(CC4CC4)C(C(C)C)C3)ccc21 (centres undefined), the Potency was “inactive”.
With C[C@@H]1OC(C2CCCCC2)N(C)[C@H]2C[C@H]3c4[nH]c5cccc(-c6ccccc6)c5c4CCN3C[C@@H]12 (some centres undefined) the Potency was inconclusive: 28.2 µM [inhibitor, partial curve, poor fit].
Cc1nn2c(=O)cc(COC(=O)c3ccc(NC(=O)c4cccc(Br)c4)cc3)nc2s1 was tested, and the Potency was inconclusive: 28.2 µM [inhibitor, partial curve, poor fit].
For Cc1c(CC(=O)NCc2ccc(F)cc2)c(=O)oc2cc(O)ccc12, the Potency was “inactive”.
With Cc1cc(=O)n2c3ccccc3n(CC(O)CN3CCOCC3)c2c1C#N (centres undefined) the Potency was inconclusive: 20 µM [inhibitor, partial curve, poor fit].
In the case of CCNC(=O)[C@@H]1C[C@@H](NC(=O)Cn2nc(C)cc2N)CN1C1CCOCC1, the Potency is reported as inconclusive: 2.24 µM [inhibitor, full curve, poor fit].
With O=C(CCC[C@@H]1[C@H]2CCCN3CCC[C@@H](CN1C(=O)c1cccnc1)[C@@H]23)NCc1ccccn1 the Potency was inconclusive: 28.2 µM [inhibitor, partial curve, poor fit].
Fc1nc(F)c(F)c(Sc2nc3ccccc3s2)c1F was tested, and the Potency was “inactive”.
Cc1nc(SCC(=O)Nc2ccc(CN3CCCC3)cc2)c2c(C)c(C)sc2n1 was tested, and the Potency was inconclusive: 12.6 µM [inhibitor, partial curve, poor fit].
For CCn1c(C)c(C)c2cc(C(=O)NCc3ccc(OC(C)C)cc3)ccc21, the Potency was inconclusive: 39.8 µM [inhibitor, partial curve, poor fit].
For CC(C)(CC(=O)O)CC(=O)N[C@H]1CO[C@H]2[C@@H]1OC[C@@H]2n1nnnc1Oc1ccc(-n2cncn2)cc1, the Potency was “inactive”.
In the case of CCCNC(=O)C(C)NC(=O)c1cc(=O)[nH]c2ccccc12 (centres undefined), the Potency is reported as inconclusive: 39.8 µM [inhibitor, single point].
In the case of Cc1ccc(NC(=O)c2ccc3c(c2)N(C)C2CCCN2C3=O)cc1F (centres undefined), the Potency is reported as inconclusive: 17.8 µM [inhibitor, partial curve, poor fit].
For CCCn1nc(C(=O)OCc2ccc(C#N)cc2)c2ccccc2c1=O, the Potency was “inactive”.
With CC(C)c1ccc(CNc2nc(-c3ccco3)nn2C(=O)c2ccc([N+](=O)[O-])cc2)cc1 the activity change, negative = inhibition was inconclusive: -32.6% [inhibitor].
With Cc1cc(C(=O)NC2CCCC2)c2c(C3CCCNC3)noc2n1 (centres undefined) the Potency was “inactive”.
In the case of COCc1cc(C)nc2sc3c(c12)NC(c1ccc(O)c(OC)c1)N(c1ccccc1)C3=O (centres undefined), the Potency is reported as inconclusive: 10 µM [inhibitor, partial curve, poor fit].
CCOc1ccc(Cn2c(=O)c3sccc3n(CC(=O)NCc3ccc4c(c3)OCO4)c2=O)cc1 was tested, and the Potency was “inactive”.
With COc1cccc(CCC(=O)NCCn2ccn3nc(-c4cccc(OC)c4)cc3c2=O)c1 the Potency was inconclusive: 39.8 µM [inhibitor, partial curve, poor fit].
CCOc1ccc2cc(-c3csc(Nc4ccccc4F)n3)c(=O)oc2c1 was tested, and the Potency was inconclusive: 39.8 µM [inhibitor, single point].
For CC(C)Oc1ccc(C(=O)Nc2ccc3oc(-c4cccnc4)nc3c2)cc1, the Potency was inconclusive: 2 µM [inhibitor, full curve, poor fit].
In the case of Cc1noc(C)c1-c1cc(-c2ccc3c(c2)C(=O)NC3)cn2cncc12, the Potency is reported as inconclusive: 35.5 µM [inhibitor, partial curve, poor fit].
With O=C(NCC1CCOCC1)[C@@H]1C[C@@H](c2ccc(F)cc2)N(CCOc2ccccc2)C1 the Potency was inconclusive: 39.8 µM [inhibitor, partial curve, poor fit].
For CC(C)NC(=O)c1ccc(F)cc1, the Potency was “inactive”.
COc1ccc(N2CCC(NC(=O)c3ccc4[nH]ccc4c3)C2=O)cc1 (centres undefined) was tested, and the Potency was inconclusive: 15.8 µM [inhibitor, single point].
COc1cc(CNC(=O)c2nc3nc(-c4ccccc4)c(Cl)cc3n2C)cc(OC)c1 was tested, and the Potency was active: 35.5 µM.
For CSc1cccc(NC(=O)CC(C)(C(=O)O)c2ccccc2)c1 (centres undefined), the Potency was “inactive”.
In the case of CCc1ccccc1NC(=O)c1sc2nc(C)cc(COC)c2c1N, the Potency is reported as inconclusive: 31.6 µM [inhibitor, partial curve, poor fit].
For CCCNC(=O)CN(C)Cc1nc(-c2ccccc2)oc1C, the Potency was inconclusive: 39.8 µM [inhibitor, single point].
For COc1ccccc1CNC(=O)C1CCCN(c2nnc(C)c3c(C)n(-c4ccccc4)nc23)C1 (centres undefined), the Potency was inconclusive: 3.16 µM [inhibitor, full curve, poor fit].
With CCOC(=O)c1sc(Nc2ccccc2C)nc1C(F)(F)F the Potency was inconclusive: 25.1 µM [inhibitor, single point].
For Cc1c(C)c2cc(Cl)c(OCC(=O)NCc3cccnc3)cc2oc1=O, the Potency was inconclusive: 1.78 µM [inhibitor, full curve, poor fit].
O=C(NCc1nnc2cc(-c3nc(C4CC4)no3)ccn12)C1(c2ccccc2)CC1 was tested, and the Potency was inconclusive: 2.82 µM [inhibitor, full curve, poor fit].
For CCNC(=O)C(C)NC(=O)c1cc2ccccc2oc1=O (centres undefined), the Potency was inconclusive: 17.8 µM [inhibitor, partial curve, poor fit].
In the case of O=C(c1ccccc1)N1CCN(Cc2cccc3cccnc23)CC1, the Potency is reported as “inactive”.
COCC(=O)NC[C@H]1CCN(Cc2cccc(Cl)c2)C[C@H]1N(C)C was tested, and the Potency was “inactive”.
COc1ccccc1NC(=O)Cn1nc(C(=O)O)c2ccccc2c1=O was tested, and the Potency was “inactive”.
With Cc1cc(=O)oc2cc(OCC(=O)c3cccc4ccccc34)ccc12 the Potency was inconclusive: 39.8 µM [inhibitor, single point].
O=C(CN(C1CCCCC1)S(=O)(=O)c1ccc(Br)cc1)N1CCOCC1 was tested, and the Potency was “inactive”.
CC1Cn2c(C(=O)NCc3cccc(Br)c3)cc3cccc(c32)S1 (centres undefined) was tested, and the Potency was inconclusive: 35.5 µM [inhibitor, partial curve, poor fit].
